Reference: patent publication US11207320B2, “Compositions and methods for cancer expressing PDE3A or SLFN12” (The Broad Institute, Inc., priority 2015, dated 2021)
The source gives many values for each of these; only a part stands here.

Test system: 766 cancer cell lines
Experiment: Large-scale cell-line viability measurements (766 cancer cell lines, 72 h, AUC)
Format: cell-based, human
Experimental: Cell lines were treated for 72 hours with concentrations ranging from 66.4 μM-2 nM in 2-fold step dilutions.
To characterize cellular sensitivity to DNMDP further, 766 genomically characterized cancer cell lines were screened for DMNDP sensitivity at concentrations ranging from 66.4 μM to 2 nM in 2-fold dilution steps for 72 hours. From these cell lines, 22 cell lines were categorized as sensitive with a robust Z-score lower than −4, which represented multiple lineages including multiple melanoma cell lines, amongst others (Table 1).
The sensitivity of […] cancer cell lines (CCLs) was measured drawn from 23 different lineages to DNMDP. Each cell line was plated in its preferred media in white opaque 1536-plates at a density of 500 cells/well. After incubating overnight, DNMDP was added by acoustic transfer at 16 concentrations ranging from 66.4 μM-2 nM in 2-fold steps in duplicate (Labcyte Echo 555, Labcyte Inc., Sunnyvale, Calif.). After 72 hours treatment, cellular ATP levels were measured as a surrogate for viability (CELLTITERGLO®, Promega Corporation, Madison, Wis.) according to manufacturer's protocols using a ViewLux Microplate Imager (PerkinElmer, Waltham, Mass.) and normalized to background (media-only) and vehicle (DMSO)-treated control wells.
Concentration response curves were fit using nonlinear fits to 2- or 3-parameter sigmoid functions through all 16 concentrations with the low-concentration asymptote set to the DMSO-normalized value, and an optimal 8-point dose curve spanning the range of compound-sensitivity was identified. The area under the 8-point dose curve (AUC) was computed by numeric integration as a metric for sensitivity for further analysis. Similar sensitivity measurements have been obtained for a collection of 480 other compounds, enabling analyses that identify cell lines responding uniquely to DNMDP (see Broad Institute Cancer Therapeutics Response Portal, a dataset to identify comprehensively relationships between genetic and lineage features of human cancer cell lines and small-molecule sensitivities for complete list of compounds).

[1] = cell line JVM3, HAEMATOPOIETIC AND LYMPHOID TISSUE, 72 hours
[2] = cell line K562 (HAEMATOPOIETIC AND LYMPHOID TISSUE)
[3] = cell line KARPAS422, HAEMATOPOIETIC AND LYMPHOID TISSUE, 72 hours
[4] = cell line KARPAS620 (HAEMATOPOIETIC AND LYMPHOID TISSUE)
[5] = cell line KASUMI1 (HAEMATOPOIETIC AND LYMPHOID TISSUE)
[6] = cell line KE37, HAEMATOPOIETIC AND LYMPHOID TISSUE, 72 hours
[7] = cell line KE97, HAEMATOPOIETIC AND LYMPHOID TISSUE, 72 hours
[8] = cell line KELLY (AUTONOMIC GANGLIA)
[9] = cell line KG1C, CENTRAL NERVOUS SYSTEM, 72 hours
[10] = cell line KM12 (LARGE INTESTINE)
[11] = cell line KMBC2 (URINARY TRACT)
[12] = cell line KMH2 (HAEMATOPOIETIC AND LYMPHOID TISSUE)
[13] = cell line KMS21BM, HAEMATOPOIETIC AND LYMPHOID TISSUE, 72 hours
[14] = cell line KMS26 (HAEMATOPOIETIC AND LYMPHOID TISSUE)
[15] = cell line KNS81 (CENTRAL NERVOUS SYSTEM)
[16] = cell line KPL1, BREAST, 72 hours
[17] = cell line KU812 (HAEMATOPOIETIC AND LYMPHOID TISSUE)
[18] = cell line KU1919 (URINARY TRACT)
[19] = cell line KYM1, SOFT TISSUE, 72 hours
[20] = cell line KYO1, HAEMATOPOIETIC AND LYMPHOID TISSUE, 72 hours
[21] = cell line L363 (HAEMATOPOIETIC AND LYMPHOID TISSUE)
[22] = cell line L428 (HAEMATOPOIETIC AND LYMPHOID TISSUE)
[23] = cell line LCLC97TM1, LUNG, 72 hours
[24] = cell line LN18 (CENTRAL NERVOUS SYSTEM)

## CCN(CC)c1ccc(C2=NNC(=O)CC2C)cc1[N+](=O)[O-] (centres unmarked) [DNMDP, 6-(4-(diethylamino)-3-nitrophenyl)-5-methyl-4,5-dihydropyridazin-3(2H)-one]
Cell line JURLMK1, HAEMATOPOIETIC AND LYMPHOID TISSUE, 72 hours
  Robust Z-score: 1.551
[1]
  DNMDP AUC: 7.961
  Robust Z-score: 1.392
[2]
  DNMDP AUC: 6.7319
  Robust Z-score: 0.1021
[3]
  DNMDP AUC: 7.2487
  Robust Z-score: 0.6445
[4]
  DNMDP AUC: 6.5931
  Robust Z-score: −0.04361
[5]
  DNMDP AUC: 6.8439
  Robust Z-score: 0.2196
[6]
  DNMDP AUC: 8.1163
  Robust Z-score: 1.555
Cell line KE39 (STOMACH)
  DNMDP AUC: 6.9103
  Robust Z-score: 0.2893
[7]
  DNMDP AUC: 7.1187
  Robust Z-score: 0.5081
[8]
  DNMDP AUC: 6.9352
  Robust Z-score: 0.3155
[9]
  DNMDP AUC: 7.238
  Robust Z-score: 0.6333
Cell line KLE (ENDOMETRIUM)
  DNMDP AUC: 6.9584
  Robust Z-score: 0.3398
[10]
  DNMDP AUC: 7.0792
  Robust Z-score: 0.4666
[11]
  DNMDP AUC: 6.7837
  Robust Z-score: 0.1565
[12]
  DNMDP AUC: 6.7155
  Robust Z-score: 0.08486
Cell line KMRC1 (KIDNEY)
  DNMDP AUC: 6.8362
  Robust Z-score: 0.2116
[13]
  DNMDP AUC: 8.3309
  Robust Z-score: 1.78
[14]
  DNMDP AUC: 6.5778
  Robust Z-score: −0.05967
Cell line KNS62 (LUNG)
  DNMDP AUC: 7.0253
  Robust Z-score: 0.41
[15]
  DNMDP AUC: 6.7793
  Robust Z-score: 0.1518
Cell line KP3 (PANCREAS)
  DNMDP AUC: 6.909
  Robust Z-score: 0.288
Cell line KP4 (PANCREAS)
  DNMDP AUC: 6.7102
  Robust Z-score: 0.0793
[16]
  DNMDP AUC: 7.1178
  Robust Z-score: 0.5071
[17]
  DNMDP AUC: 6.8063
  Robust Z-score: 0.1802
[18]
  DNMDP AUC: 6.8061
  Robust Z-score: 0.18
[19]
  DNMDP AUC: 8.4417
  Robust Z-score: 1.897
[20]
  DNMDP AUC: 7.1048
  Robust Z-score: 0.4935
Cell line KYSE30 (OESOPHAGUS)
  DNMDP AUC: 6.8825
  Robust Z-score: 0.2602
Cell line KYSE70 (OESOPHAGUS)
  DNMDP AUC: 6.7428
  Robust Z-score: 0.1135
Cell line KYSE140 (OESOPHAGUS)
  DNMDP AUC: 6.836
  Robust Z-score: 0.2113
Cell line KYSE150 (OESOPHAGUS)
  DNMDP AUC: 7.0859
  Robust Z-score: 0.4737
Cell line KYSE180 (OESOPHAGUS)
  DNMDP AUC: 7.0541
  Robust Z-score: 0.4403
Cell line KYSE450 (OESOPHAGUS)
  DNMDP AUC: 6.6505
  Robust Z-score: 0.01664
Cell line KYSE510 (OESOPHAGUS)
  DNMDP AUC: 6.9987
  Robust Z-score: 0.3821
Cell line KYSE520 (OESOPHAGUS)
  DNMDP AUC: 6.8305
  Robust Z-score: 0.2056
[21]
  DNMDP AUC: 7.0473
  Robust Z-score: 0.4331
[22]
  DNMDP AUC: 6.5828
  Robust Z-score: −0.05442
Cell line LC1SQSF (LUNG)
  DNMDP AUC: 6.8361
  Robust Z-score: 0.2115
[23]
  DNMDP AUC: 7.2086
  Robust Z-score: 0.6024
Cell line LCLC103H (LUNG)
  DNMDP AUC: 6.7269
  Robust Z-score: 0.09683
Cell line LK2 (LUNG)
  DNMDP AUC: 6.8724
  Robust Z-score: 0.2496
[24]
  DNMDP AUC: 6.6106
  Robust Z-score: −0.02524
